# Experimental data taken from PubChem BioAssay (NCI).
#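 Each compound was tested at five concentrations against cells in 96-well plates for 48 hours. GI50: concentration for 50% inhibition of growth. The concentration for full growth arrest is given as TGI.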
# Test system: NCI-H322M lung
# Test: NCI anticancer screen, dose series, 48 h
Compound,GI50 [µM],TGI [µM]
COc1cc(/C=C/C(=O)c2cc(OC)c(OC)c(OC)c2)ccc1OCc1ccccc1,2.42,8.04
N#C/C(=N\Nc1ccc(F)cc1)C(=O)Nc1cc(-c2ccccc2)nn1-c1ccccc1,2.79,12.9
C/C(=C(/c1ccc(O)cc1)c1ccc(OCCN2CCCC2)cc1)c1ccc(Cl)cc1,4.16,16.1
